According to the supplement of paper PMC11880418:
Counter-ions that a name gives are not always drawn. Some of the results follow. The data scatter; read single values as rough.

system: SUM159; test: ALDHbr (CSC) cell proportion score relative to DMSO vehicle (ratio to DMSO); breast (SUM159) / gastric (MKN45) / pancreatic (PANC1) / colon cancer lines; ALDHbr cells have high ALDH activity and are rich in cancer stem cells (CSC); higher = more CSC (ALDHbr) cells remaining; conditions: 10 µM; 72 h
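Also: High-content imaging of ALDEFLUOR-stained cells with Hoechst-labelled nuclei in 384-well plates, triplicate wells, scored as Z-score against 0.1% DMSO vehicle, negative meaning fewer ALDHbr cells.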

| SMILES | ALDHbr |
| --- | --- |
| CC1COc2c(N3CCN(C)CC3)c(F)cc3c(=O)c(C(=O)O)cn1c23 (centres undefined) [Ofloxacin] | 0.929 |
| CNc1ncnc2c1ncn2[C@@H]1O[C@H](CO)[C@@H](O)[C@H]1O [N6-methyladenosine] | 1.36 |
| CCN(CC)CCNC(=O)c1ccc(N)cc1 [Procainamide hydrochloride] | 1.11 |
| NS(=O)(=O)c1cc2c(cc1Cl)N=CNS2(=O)=O [Chlorothiazide] | 1.05 |
| CNC(=C[N+](=O)[O-])NCCSCc1ccc(CN(C)C)o1 [Ranitidine hydrochloride] | 1.03 |
| OCCN1CCN(CC/C=C2/c3ccccc3Sc3ccc(Cl)cc32)CC1 [Zuclopenthixol dihydrochloride] | 0.411 |
| Cc1cc(NC(=O)C2=C(O)c3ccccc3S(=O)(=O)N2C)no1 [Isoxicam] | 1.17 |
| CC[C@H](C)C(=O)O[C@H]1C[C@H](O)C=C2C=C[C@H](C)[C@H](CC[C@@H](O)C[C@@H](O)CC(=O)O)[C@H]21 [Pravastatin] | 1 |
| O=C(CCCN1CCN(c2ccccn2)CC1)c1ccc(F)cc1 [Azaperone] | 1.01 |
| CCN(CC)CCCC(C)Nc1ccnc2cc(Cl)ccc12 (centres undefined) [Chloroquine diphosphate] | 0.824 |
| CC(=O)OCC(=O)[C@@]12OC3(CCCC3)O[C@@H]1C[C@H]1[C@@H]3CCC4=CC(=O)C=C[C@]4(C)[C@@]3(F)[C@@H](O)C[C@@]12C [Amcinonide] | 0.839 |
| OCC(O)CN1CCN(c2ccccc2)CC1 (racemic) [Dropropizine (R,S)] | 1.03 |
| O=C(O)CNC(=O)C(CS)Cc1ccccc1 (centres undefined) [Thiorphan] | 1.18 |
| CSc1ccc2c(c1)N(CCC1CCCCN1C)c1ccccc1S2 (centres undefined) [Thioridazine hydrochloride] | 1.1 |
| OCCN1CCN(CCCN2c3ccccc3Sc3ccc(C(F)(F)F)cc32)CC1 [Fluphenazine dihydrochloride] | 0.693 |
| N[C@@H]1CCCCN(c2c(F)cc3c(=O)c(C(=O)O)cn(C4CC4)c3c2Cl)C1 [Besifloxacin hydrochloride] | 0.904 |
| C#C[C@]1(O)CC[C@H]2[C@@H]3CCc4cc(OC)ccc4[C@H]3CC[C@@]21C [Ethynylestradiol 3-methyl ether] | 1.18 |
| CCOC(=O)[C@H](CCc1ccccc1)N[C@H]1CCc2ccccc2N(CC(=O)O)C1=O [Benazepril hydrochloride] | 0.855 |
| CCN(CC)C(=O)C1(c2ccccc2)CC1CN (centres undefined) [Milnacipran hydrochloride] | 1.02 |
| O=C1CN(/N=C/c2ccc(-c3ccc([N+](=O)[O-])cc3)o2)C(=O)N1 [Dantrolene sodium salt] | 0.935 |

| SMILES | ALDHbr |
| --- | --- |
| CO[C@@]1(NC(=O)CSCC#N)C(=O)N2C(C(=O)O)=C(CSc3nnnn3C)CS[C@@H]21 [Cefmetazole sodium salt] | 0.836 |
| O=C(N[C@H](CO)[C@H](O)c1ccc([N+](=O)[O-])cc1)C(Cl)Cl [Chloramphenicol] | 1.07 |
| Clc1ccc(C(c2ccccc2Cl)C(Cl)Cl)cc1 (centres undefined) [Mitotane] | 0.694 |
| c1ccc(CN(CC2=NCCN2)c2ccccc2)cc1 [Antazoline hydrochloride] | 0.815 |
| O=C(O)c1cccnc1 [Niacin] | 1.24 |
| CC[C@H]1OC(=O)[C@H](C)[C@@H](O[C@H]2C[C@@](C)(OC)[C@@H](O)[C@H](C)O2)[C@H](C)[C@@H](O[C@@H]2O[C@H](C)C[C@H](N(C)C)[C@H]2O)[C@](C)(O)C[C@@H](C)CN(C)[C@H](C)[C@@H](O)[C@]1(C)O [Azithromycin] | 1.04 |
| O=C1NCN(c2ccccc2)C12CCN(CCCC(c1ccc(F)cc1)c1ccc(F)cc1)CC2 [Fluspirilen] | 0.33 |
| CCOC(=O)NNc1nncc2ccccc12 [Todralazine hydrochloride] | 1.14 |
| Cc1c(NC(C)C)c(=O)n(-c2ccccc2)n1C [Isopyrin hydrochloride] | 0.984 |
| CS(=O)(=O)c1ccc([C@@H](O)[C@@H](CO)NC(=O)C(Cl)Cl)cc1 [Thiamphenicol] | 1.22 |
| O=C(c1ccc(F)cc1)C1CCN(CCn2c(=O)[nH]c3ccccc3c2=O)CC1 [Ketanserin tartrate hydrate] | 1.16 |
| O=C(Nc1cccc2c(=O)cc(-c3nnn[nH]3)oc12)c1ccc(OCCCCc2ccccc2)cc1 [Pranlukast] | 1.03 |
| Cc1cnc(NC(=O)C2=C(O)c3ccccc3S(=O)(=O)N2C)s1 [Meloxicam] | 0.906 |
| O=C1[C@H](CC[C@H](O)c2ccc(F)cc2)[C@@H](c2ccc(O)cc2)N1c1ccc(F)cc1 [Ezetimibe] | 0.8 |
| C[C@H]1C[C@H]2[C@@H]3CCC4=CC(=O)C=C[C@]4(C)[C@@]3(F)[C@@H](O)C[C@]2(C)[C@@]1(O)C(=O)CO [Betamethasone] | 1.18 |
| Cn1cnc2c1c(=O)[nH]c(=O)n2C [Theobromine] | 1 |
| C[C@](N)(Cc1ccc(O)c(O)c1)C(=O)O [Methyldopa (L,-)] | 1.04 |
| S=c1[nH]cnc2nc[nH]c12 [Mercaptopurine] | 0.898 |
| C[N+](C)(C)CCOC(N)=O [Carbachol] | 0.879 |
